# Measurements as given in patent US20090281042A1 (priority 2005, published 2009).
# Read-outs that look alike come from different tables or passages of the source.
# Tested on: HeLa lysate
# Settings: H1 lysate, Pep1 as substrate; for Reaction rate: control 119
Compound,% Inhibition (relative to control) (inhibitor 2 mM) [%],Reaction rate (inhibitor 2 mM) [RFU/min],% Inhibition (relative to control) (inhibitor 8 ug/ml) [%],Reaction rate (inhibitor 8 ug/ml) [RFU/min]
O=S(=O)(F)Cc1ccccc1 [PMSF],0,119,–,–
Aprotinin,–,–,3.3,115
